Over roughly 81,000 sequences, “one-hybrid fitness for binding parS DNA” has its median near -0.17; the highest 2% begin near 0.51. The list shows a part of the results.

The labels stand for the following.
B1: Caulobacter ParB omega fusion; a variant is named by its letters at X, in order, B8GW30 (parent)
chain: MESVVVGEPGMSEGRRGLGRGLSALLGEVDAAPAQAPGEQLGGSREAPIEILQRNPDQPRRTFREEDLEDLSNSIREKGVLQPILVRPSPDTAGEYQIVAGERAWRAAQRAGLKTVPIMVRELDDLAVLEIGIIENVQRADLNVLEEALSYKVLMEKFERTQENIAQTIGKSXSHVANXMRLLXLPDEVQSYLVSGELTAXHARAIAAAADPVALAKQIIEGGLSVRETEALARKAPNLSAGKSKGGRPPRVKDTDTQALESDLSSVLGLDVSIDHRGSTGTLTITYATLEQLDDLCNRLTRGI

Variants of B1 are the subject of this assay. Briefly: one-hybrid fitness for binding parS DNA (scaled: cognate 1, non-cognate 0); higher = stronger binding. The following applies: with parS DNA site. An outline of the steps:
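Selection: bacterial one-hybrid in E. coli USO, HIS3 reporter with the site 19 bp from the promoter, 48 hours at 37°C on M9-minus-histidine plus 0.1 mM IPTG and 5 mM 3-AT. Libraries were Caulobacter ParB with four randomised specificity codons, sequenced on Illumina before and after selection. Fitness is the rescaled log change in variant-to-wild-type read ratio, anchored to the cognate and non-cognate sites.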
For the variant GCLC, the “one-hybrid fitness for binding parS DNA” value is at most 0.2.
As for HRPT, the figure is at most 0.2.
Take ACMG: the “one-hybrid fitness for binding parS DNA” value is at most 0.2.
Next, FCQG: at most 0.2; VQPE: at most 0.2; ILQG: at most 0.2.
For RICI, the “one-hybrid fitness for binding parS DNA” value was at most 0.2.
As for LFQI, the figure is at most 0.2.
Take LWHE: the “one-hybrid fitness for binding parS DNA” value was at most 0.2.
As for AELI, the figure is at most 0.2; as for PNMF, at most 0.2.
Turning to TRVK, the “one-hybrid fitness for binding parS DNA” value was at most 0.2.
As for PAVG, the figure is at most 0.2; as for FWAT, at most 0.2; as for MMDR, at most 0.2.
Regarding WTPL, the “one-hybrid fitness for binding parS DNA” value is at most 0.2.
YINW: the “one-hybrid fitness for binding parS DNA” value was at most 0.2.
With LDPP, the “one-hybrid fitness for binding parS DNA” value is at most 0.2.
In the case of AGVE, the “one-hybrid fitness for binding parS DNA” value is at most 0.2.
As to MLHL, the “one-hybrid fitness for binding parS DNA” value is at most 0.2.
In the case of ACER, the “one-hybrid fitness for binding parS DNA” value was at most 0.2.
TCGT: the “one-hybrid fitness for binding parS DNA” value is at most 0.2.
Consider CLEC, for which the “one-hybrid fitness for binding parS DNA” value is at most 0.2.
As for KSTG, the figure is at most 0.2; as for ISWG, at most 0.2.
Next, MNES: at most 0.2; EWGE: at most 0.2.
On to YGLG, for which the “one-hybrid fitness for binding parS DNA” value is at most 0.2.
As for RRPC, the “one-hybrid fitness for binding parS DNA” value worked out at 0.796.
RYRM: the “one-hybrid fitness for binding parS DNA” value was 0.328.
In the case of VPPW, the “one-hybrid fitness for binding parS DNA” value was at most 0.2.
Regarding HPLS, the “one-hybrid fitness for binding parS DNA” value is at most 0.2.
For the variant GSAQ, the “one-hybrid fitness for binding parS DNA” value was at most 0.2.
Next, PVGS: at most 0.2; MMKW: at most 0.2; IYWV: at most 0.2.
On to SHNF, for which the “one-hybrid fitness for binding parS DNA” value is at most 0.2.
As for CMAR, the figure is at most 0.2.
In the case of MANI, the “one-hybrid fitness for binding parS DNA” value was at most 0.2.
Consider RMFF, for which the “one-hybrid fitness for binding parS DNA” value is 0.206.
As for MLSL, the figure is at most 0.2.
With QIIL, the “one-hybrid fitness for binding parS DNA” value was at most 0.2.
Take RCKW: the “one-hybrid fitness for binding parS DNA” value was 0.367.
On to SNSM, for which the “one-hybrid fitness for binding parS DNA” value is at most 0.2.
Consider AARR, for which the “one-hybrid fitness for binding parS DNA” value is at most 0.2.
Turning to HRCP, the “one-hybrid fitness for binding parS DNA” value was at most 0.2.
As for QLVK, the “one-hybrid fitness for binding parS DNA” value was at most 0.2.
FSLD: the “one-hybrid fitness for binding parS DNA” value was at most 0.2.
For PHFA, the “one-hybrid fitness for binding parS DNA” value was at most 0.2.
For NKPR, the “one-hybrid fitness for binding parS DNA” value was at most 0.2.
For the variant TFKT, the “one-hybrid fitness for binding parS DNA” value was at most 0.2.
On to QSCD, for which the “one-hybrid fitness for binding parS DNA” value was at most 0.2.
Consider RQEF, for which the “one-hybrid fitness for binding parS DNA” value came out at 0.206.
As to RFTT, the “one-hybrid fitness for binding parS DNA” value was 0.836.
VAEG: the “one-hybrid fitness for binding parS DNA” value was at most 0.2.
As for LRNL, the “one-hybrid fitness for binding parS DNA” value is at most 0.2.
As for LRTL, the figure is at most 0.2; as for QYLD, at most 0.2; as for MQPC, at most 0.2.
Consider ITKG, for which the “one-hybrid fitness for binding parS DNA” value was at most 0.2.
As for CVIT, the figure is at most 0.2.
Take RGGD: the “one-hybrid fitness for binding parS DNA” value was at most 0.2.
As for ATLD, the figure is at most 0.2; as for NFFS, at most 0.2.
Turning to KYHR, the “one-hybrid fitness for binding parS DNA” value was at most 0.2.
In the case of HSAL, the “one-hybrid fitness for binding parS DNA” value is at most 0.2.
As for NIGL, the figure is at most 0.2; as for IRHC, at most 0.2.
As for NHPC, the “one-hybrid fitness for binding parS DNA” value was at most 0.2.
As for FNRL, the figure is at most 0.2; as for PQDT, at most 0.2; as for LTGS, at most 0.2.
As to KGFR, the “one-hybrid fitness for binding parS DNA” value is at most 0.2.
YAVQ: the “one-hybrid fitness for binding parS DNA” value is at most 0.2.
Consider GVTG, for which the “one-hybrid fitness for binding parS DNA” value was at most 0.2.
YYVS: the “one-hybrid fitness for binding parS DNA” value was at most 0.2.
On to MSCT, for which the “one-hybrid fitness for binding parS DNA” value was at most 0.2.
For the variant SKRS, the “one-hybrid fitness for binding parS DNA” value was at most 0.2.
Turning to GTHC, the “one-hybrid fitness for binding parS DNA” value is at most 0.2.
Next, RVKT: 0.761.
For QVYK, the “one-hybrid fitness for binding parS DNA” value was at most 0.2.
Take RQFH: the “one-hybrid fitness for binding parS DNA” value is at most 0.2.
Next, NADI: at most 0.2.
On to EISH, for which the “one-hybrid fitness for binding parS DNA” value came to 0.24.
In the case of RFRK, the “one-hybrid fitness for binding parS DNA” value is at most 0.2.
Turning to SSDT, the “one-hybrid fitness for binding parS DNA” value is at most 0.2.
With PAFF, the “one-hybrid fitness for binding parS DNA” value was at most 0.2.
As for YICV, the figure is at most 0.2; as for WVRS, at most 0.2.
As to GKIC, the “one-hybrid fitness for binding parS DNA” value was at most 0.2.
With RCTQ, the “one-hybrid fitness for binding parS DNA” value was at most 0.2.
As for NEQL, the figure is at most 0.2.
As for QEGG, the “one-hybrid fitness for binding parS DNA” value was at most 0.2.
As to KYYT, the “one-hybrid fitness for binding parS DNA” value is at most 0.2.
Next, GCLV: at most 0.2; PCSV: at most 0.2; DKIL: at most 0.2.
Take IMIC: the “one-hybrid fitness for binding parS DNA” value was at most 0.2.
Regarding QQFC, the “one-hybrid fitness for binding parS DNA” value is at most 0.2.
In the case of QCIG, the “one-hybrid fitness for binding parS DNA” value was at most 0.2.
Take GQKT: the “one-hybrid fitness for binding parS DNA” value was at most 0.2.
As to MESD, the “one-hybrid fitness for binding parS DNA” value was at most 0.2.
With NDSR, the “one-hybrid fitness for binding parS DNA” value was at most 0.2.
Next, DKNC: at most 0.2; PWTD: at most 0.2; NPEN: at most 0.2.
On to VYKD, for which the “one-hybrid fitness for binding parS DNA” value is at most 0.2.
With GTTT, the “one-hybrid fitness for binding parS DNA” value is at most 0.2.
Consider FSSV, for which the “one-hybrid fitness for binding parS DNA” value is at most 0.2.
As for LMGL, the figure is at most 0.2; as for RVYF, 0.25; as for WSIC, at most 0.2.
As for YLFF, the figure is at most 0.2.
With MAGE, the “one-hybrid fitness for binding parS DNA” value was at most 0.2.
Take LYPN: the “one-hybrid fitness for binding parS DNA” value was at most 0.2.
Regarding YATW, the “one-hybrid fitness for binding parS DNA” value was at most 0.2.
As to GTGL, the “one-hybrid fitness for binding parS DNA” value was at most 0.2.
As for PFAG, the “one-hybrid fitness for binding parS DNA” value was at most 0.2.
Turning to SNFV, the “one-hybrid fitness for binding parS DNA” value was at most 0.2.
As for GTVR, the figure is at most 0.2.
On to FASC, for which the “one-hybrid fitness for binding parS DNA” value was at most 0.2.
For QDHL, the “one-hybrid fitness for binding parS DNA” value was at most 0.2.
For HKWS, the “one-hybrid fitness for binding parS DNA” value is at most 0.2.
Take TASK: the “one-hybrid fitness for binding parS DNA” value was at most 0.2.
Regarding LKSW, the “one-hybrid fitness for binding parS DNA” value is at most 0.2.
With TDRF, the “one-hybrid fitness for binding parS DNA” value was at most 0.2.
Turning to EYIS, the “one-hybrid fitness for binding parS DNA” value was at most 0.2.
Regarding QALP, the “one-hybrid fitness for binding parS DNA” value is at most 0.2.
As to RSSG, the “one-hybrid fitness for binding parS DNA” value came out at 0.993.
In the case of RNFR, the “one-hybrid fitness for binding parS DNA” value is at most 0.2.
Next, WMPG: at most 0.2; PYCR: at most 0.2; SWGS: at most 0.2.
As for QFGL, the figure is at most 0.2; as for CVNS, at most 0.2.
Regarding HREN, the “one-hybrid fitness for binding parS DNA” value is at most 0.2.
For the variant TNEC, the “one-hybrid fitness for binding parS DNA” value is at most 0.2.
As for ESVR, the figure is at most 0.2; as for LIGS, at most 0.2; as for MGSF, at most 0.2.
Consider QQPS, for which the “one-hybrid fitness for binding parS DNA” value is at most 0.2.
As for EHGL, the “one-hybrid fitness for binding parS DNA” value is at most 0.2.
For the variant SPHY, the “one-hybrid fitness for binding parS DNA” value was at most 0.2.
Next, NLIT: at most 0.2.
For LPLN, the “one-hybrid fitness for binding parS DNA” value is at most 0.2.
For TSQG, the “one-hybrid fitness for binding parS DNA” value is at most 0.2.
For HDWY, the “one-hybrid fitness for binding parS DNA” value is at most 0.2.
NLKM: the “one-hybrid fitness for binding parS DNA” value was at most 0.2.
As for TREA, the figure is at most 0.2; as for RPKK, at most 0.2; as for FPLT, at most 0.2.
Next, LTTE: at most 0.2; DIKC: at most 0.2.
